Measured values published in the RNAGym collection of RNA variant scans (doi:10.1093/nar/gkz1192).
Read counts are not given, so values of variants with three or more changes are uncertain.

B1: CPEB3 Ribozyme (parent)
chain: UAACAGGGGGCCACAGCAGAAGCGUUCACGUCGCAGCCCCUGUCAGAUUCUGGUGAAUCUGCGAAUUCUGCUGUAUAUCUC

Variants of: B1
Experiment: self-cleavage, relative activity (ratio to wild type); higher = more cleavage; in vitro, sequencing
Method in brief: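 For each CPEB3 ribozyme variant, relative activity is its cleaved/total read fraction divided by the unmutated ribozyme's. Barcoded error-prone PCR libraries were transcribed by T7 RNA polymerase (5 hours, 37°C) and held in DNase I for 15 min before an EDTA stop, with cleavage occurring throughout. Template-switching reverse transcription and Illumina sequencing were used to read the RNAs. A 5-read minimum applied, and results are the mean of three batches.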

| Variant | self-cleavage |
| --- | --- |
| UAACAGGGGGCCACAGCUGAAGCGUUCACGUCGCAGCCCCUGACAGAUUCUGGUGAAUCUGCGAAUACUGCAGUGUAUCUC | 0.26 |
| UAACAGGGGGCCACAGCUGAAGCGUUCACGCCGCAGCCCCUGUAAGAUUCUGGUGAAUCUGCGGAUUCUGCUGUAUAUCUC | 0.16 |
| UAACAGGGGGCCACAGCUGAAGCGUUCACGUCGCAGCCCCAGUCAGAUUCUGGGGAAUCCGCGAAUUCUGCCGUAUAUCUC | 0.1 |
| UAACAGGGGGCCACAGCUGAAGCGUUCACGCCGCAGCCCCUGUCUGGUUCUGGUGAAUCUGCGAAUUCUGCUGUAUUUCUC | 0.23 |
| UAACAGGGGGCCACAGCUGAAGCGUUCACGCCGCAGCCCCCGUCAGGUUCUGGUGAAUCUGCGAAUUCUGGUGUAUAUCUC | 0.12 |
| UAACAGGGGGCCACAGCUGAAGCGUCCACGUCGCAGCCCCUGUAAGAUUCUGGUGAAUCUGGGAAUUCUGCUGUAUAUCUC | 0.11 |
| UAACAGGGGGCCACAGCUGAAGCGUUCACGCCGCAGCCCCCGUCAGAUUCUGGUGAGUCUGCGAAUUCUGCUGUAUAUCUC | 0.14 |
| UAACAGGGGGCCACAGCUGAAGCGUCCACGUCGCAGCCCCUGUCAGAUUCAGGUGAAUCUGCGAAUUAUGCCGUAUAUCUC | 0.05 |
| UAACAGGGGGCCACAGCUGAAGCGUCCACGUCGCAGCCCCUGUCAGAUUCUGGUGAAUCUGCGAAUUCUGCUGUAUAUCCC | 0.08 |
| UAACAGGGGGCCACAGCUGAAGCGUUCACGUCGCAGCCCCUGUCAGAAUCUGGUGCAUCUGCGAAUUCUGCUGCAUAUCUC | 0.05 |
| UAACAGGGGGCCACAGCUGAAGCGUCCACGUCGCAGCCCCUACCAGACUCUGGUGAAUCUGCGAAUUCCGCUGUAUAUCUC | 0.08 |
| UAACAGGGGGCCACAGCUGAAGCGUUCACGCCGCAGCCCCUGUCUGAUUCUGGUGUAUCUGCGAAUUCUGCUGUAUAUCUC | 0.06 |
| UAACAGGGGGCCACAGCUGAAGCGUUCACGUCGCAGCCCCAGUCAGAUUCUGGUGAAUCUGCGAAUUCGGCUGUAUACCAC | 0.09 |
| UAACAGGGGGCCACAGCUGAAGCGUUCACGUCGCAGCCCCCGUCAGAUACUGGUGAAUUUGCGAAUUCUGCUGUAUAUCUC | 0.2 |
| UAACAGGGGGCCACAGCUGAAGCGUUCACGCCGCAGCCCCUCUCAGAUUCUGGUGAAUCUGCGAAUUCUGCUGUAUAUCUC | 0.19 |
| UAACAGGGGGCCACAGCUGAAGCGUUCACGAAGCAGCCCCUGUCAGAUUCUGGUGAAUCUGCGAGUUCUGCUGUAUAUCUC | 0.07 |
| UAACAGGGGGCCACAGCUGAAGCGUUCACGCCGCAGCCCCUGUCAGAUUCUGGUGAAUCUGCGAAUCCUGCUGUAUAUCUC | 0.11 |

| Variant | self-cleavage |
| --- | --- |
| UAACAGGGGGCCACAGCUGAAGCGUGCACGUCGCAGCCCCUGUCAGAUUCUGGUGAACCUGCGGAUUCUGCUGUAUAUCCC | 0.04 |
| UAACAGGGGGCCACAGCUGAAGCGUUCACGUCGCAGCCCCUGCCAGAUUCUGGUGAAUCUGCGAGUCCUGCUGUACAUCUC | 0.18 |
| UAACAGGGGGCCACAGCUGAAGCGUUCACGACGCAGCUCCUGUCUGACUCUGGUGAAUCUGCGUAUUCUGCUGUAUAUCUC | 0.05 |
| UAACAGGGGGCCACAGCUGAAGCGUUCACGCCGCAGCCCCUGUCAGGUUCCGGUGAAUCUGCGAAUUCUGCUGUAUAUCUC | 0.14 |
| UAACAGGGGGCCACAGCUGAAGCGUCCACGUCGCAGCCCCUGCCAGAUUCUGGUGGAACUGCGAUUUCUGCUGUAUAUCUC | 0.05 |
| UAACAGGGGGCCACAGCUGAAGCGUUCACGUCGCAGCCCCUGACUGAUUCUGGUGAAUCUGCGAAUUCUGCUGUAUAUCUC | 0.27 |
| UAACAGGGGGCCACAGCUGAAGCGUUCACGCCGCAGCCCCUGUCAGAUUCUGGCGAAUCUGCGAAUUCUGCUGUAUAUCUC | 0.16 |
| UAACAGGGGGCCACAGCUGAAGCGUCCACGUCGCAGCCCCUGUCAGAUUCUGGUGAAUCUGCGAAUACUGCUGUAUAUCUC | 0.15 |
| UAACAGGGGGCCACAGCUGAAGCGUUCACGACGCUGCCCCUGUCAGAUUCUGUUGAAUCUGCGAAUACAGCUGUUUAUCUC | 0.05 |
| UAACAGGGGGCCACAGCUGAAGCGUUCACGUCGCAGCCCCUGCCAGAUUCUGGUGAAUCUGCGAACUCUGCUGUAUAUCCC | 0.13 |
| UAACAGGGGGCCACAGCUGAAGCGUUCACGGCGCAGCCCCUGUCAGAUUCUGGUGAAUCUGCGGAUUCUGCUGCAUAUCUC | 0.13 |
| UAACAGGGGGCCACAGCUGAAGCGUUCACGACGCAGCCCCUGUCAGAUUCUGGUGAGUCUGCGAAUUCUGCUGUAUAUCUC | 0.44 |
| UAACAGGGGGCCACAGCUGAAGCGUCCACGUCGCAGCCCCUGUCAGGUUCUGGUGAAUCUGCGAAUUCUGCUGUAUUUCUC | 0.24 |
| UAACAGGGGGCCACAGCUGAAGCGUCCACGUCGCAACCCCUGUCAGAUUCUGGUGAAUCUGCGAAUUCUGCUGUAUAUCUC | 0.18 |
| UAACAGGGGGCCACAGCUGAAGCGUCCACGUCGCAGCCCCUGUCAGAUUCAGGUGAAUCUGCGAAUCCUGCCGUAUAUCUC | 0.12 |
| UAACAGGGGGCCACAGCUGAAGCGUGCACGUCGCAGCCCCUGUCAGAUUCUGGAGAACCUGCGAAUUCUGCUGUAUACCUC | 0.01 |
| UAACAGGGGGCCACAGCUGAAGCGUCCACGUCGCAGCCCCUGUCAGAUUCUGGUGGAUCCGCGAGUUCUGCUGUAUAUCUC | 0.1 |
